Source: patent US20240076343A1
“And” between values parts separate entries of the source, which are not always exact repeats. Equal entries are not always repeated.

B1: 1H3-hIgG1-L6-hIL-2 (D20A/E95A/L72D) (protein)
heavy: EVQLVESGGGLVQPGRSLKLSCAVSGFTFSDYAMAWVRQAPKKGLEWVATISYDGSRTYYRDSVKGRFTISRDNAKITLYLQMDSLRSEDTATYYCARHGSGYFDYWGQGVMVTVSS[not shown - human IgG1 constant region]SGGGGSAPTSSSTKKTQLQLEHLLLALQMILNGINNYKNPKLTRMLTFKFYMPKKATELKHLQCLEEELKPLEEVLNDAQSKNFHLRPRDLISNINVIVLALKGSETTFMCEYADETATIVEFLNRWITFCQSIISTLT
light: DTVLTQSPALAVSPGERVTISCRASESVRTGVHWYQQKPGQQPKLLIYGASNLESGVPARFSGSGSGTDFTLTIDPVEADDTATYFCQQSWNDPFTFGSGTKLEIKRTVAAPSVFIFPPSDEQLKSGTASVVCLLNNFYPREAKVQWKVDNALQSGNSQESVTEQDSKDSTYSLSSTLTLSKADYEKHKVYACEVTHQGLSSPVTKSFNRGEC
B2: 1H3-hIgG1-L6-hIL-2 (D20A/E95A/L72H) (protein)
heavy: EVQLVESGGGLVQPGRSLKLSCAVSGFTFSDYAMAWVRQAPKKGLEWVATISYDGSRTYYRDSVKGRFTISRDNAKITLYLQMDSLRSEDTATYYCARHGSGYFDYWGQGVMVTVSS[not shown - human IgG1 constant region]SGGGGSAPTSSSTKKTQLQLEHLLLALQMILNGINNYKNPKLTRMLTFKFYMPKKATELKHLQCLEEELKPLEEVLNHAQSKNFHLRPRDLISNINVIVLALKGSETTFMCEYADETATIVEFLNRWITFCQSIISTLT
light: B1 light
B3: 1H3-hIgG1-L6-hIL-2 (D20A/E95A/F42K/Y45R) (protein)
heavy: EVQLVESGGGLVQPGRSLKLSCAVSGFTFSDYAMAWVRQAPKKGLEWVATISYDGSRTYYRDSVKGRFTISRDNAKITLYLQMDSLRSEDTATYYCARHGSGYFDYWGQGVMVTVSS[not shown - human IgG1 constant region]SGGGGSAPTSSSTKKTQLQLEHLLLALQMILNGINNYKNPKLTRMLTKKFRMPKKATELKHLQCLEEELKPLEEVLNLAQSKNFHLRPRDLISNINVIVLALKGSETTFMCEYADETATIVEFLNRWITFCQSIISTLT
light: B1 light
B4: 1H3-hIgG1-L6-hIL-2 (Δ1-3APT/D20A/R38E/C125A) (protein)
heavy: EVQLVESGGGLVQPGRSLKLSCAVSGFTFSDYAMAWVRQAPKKGLEWVATISYDGSRTYYRDSVKGRFTISRDNAKITLYLQMDSLRSEDTATYYCARHGSGYFDYWGQGVMVTVSS[not shown - human IgG1 constant region]SGGGGSSSSTKKTQLQLEHLLLALQMILNGINNYKNPKLTEMLTFKFYMPKKATELKHLQCLEEELKPLEEVLNLAQSKNFHLRPRDLISNINVIVLELKGSETTFMCEYADETATIVEFLNRWITFAQSIISTLT
light: B1 light

Each binder was assayed against intermediate affinity hIL-2 receptor (hIL-2Rβγ) on TF1+IL-2Rβ cells (human) (UniProt P14784) (assay: cell-based or functional assay).

What does the source list for B1?
Agonistic Activity (TF1 + IL-2Rβ): 90%; Fold change from rhIL-2 (TF1 + IL-2Rβ): 125 fold

B2 was tested. Which Agonistic Activity (TF1 + IL-2Rβ) did it give?
Its Agonistic Activity (TF1 + IL-2Rβ) is 80%.

And the Fold change from rhIL-2 (TF1 + IL-2Rβ)?
The Fold change from rhIL-2 (TF1 + IL-2Rβ) was 135 fold.

With B3 as the binder, how does the Agonistic Activity (TF1 + IL-2Rβ) read?
Its Agonistic Activity (TF1 + IL-2Rβ) is 40 to 80%.

Which results are given for B4?
Agonistic Activity (TF1 + IL-2Rβ): 60%; Fold change from rhIL-2 (TF1 + IL-2Rβ): 993 fold

The binders below were run against high-affinity hIL-2 receptor (IL-2Rαβγ) on NK-92 cells (human) (UniProt P01589) (assay: cell-based or functional assay).

How did the Fold change from hIL-2 (NK-92) turn out when B1 was run?
Its Fold change from hIL-2 (NK-92) is 21 fold.

What about the Fold change from rhIL-2 (NK-92) of the same binder?
The Fold change from rhIL-2 (NK-92) was 5420 fold.

For B2, which Agonistic Activity (NK-92) is on record?
The Agonistic Activity (NK-92) was 60%.

And the Fold change from hIL-2 (NK-92)?
The Fold change from hIL-2 (NK-92) was 14 fold.

What about the Fold change from rhIL-2 (NK-92) of the same binder?
Its Fold change from rhIL-2 (NK-92) is 583 fold.

For B3, which Fold change from hIL-2 (NK-92) is on record?
Its Fold change from hIL-2 (NK-92) is 21 fold.

And the Fold change from rhIL-2 (NK-92)?
Its Fold change from rhIL-2 (NK-92) is greater than 10000 fold.

What does the source list for B4?
Fold change from hIL-2 (NK-92): 15 fold; Fold change from rhIL-2 (NK-92): > 10000 fold

These binders were tested against intermediate affinity hIL-2 receptor complex (IL-2Rβγ) (human) (UniProt P14784) (assay: cell-based or functional assay).

Which Agonistic Activity (TF1 + IL-2Rβ), pSTAT5 titration does the source give for B1 here?
The Agonistic Activity (TF1 + IL-2Rβ), pSTAT5 titration was 60 to 70%.

What does the source list for B2?
Agonistic Activity (TF1 + IL-2Rβ), pSTAT5 titration: 70%; Fold change from rhIL-2 (TF1 + IL-2Rβ), pSTAT5 titration: 117 fold

For B3, which Agonistic Activity (TF1 + IL-2Rβ), pSTAT5 titration is on record?
Its Agonistic Activity (TF1 + IL-2Rβ), pSTAT5 titration is 70%.

And the Fold change from rhIL-2 (TF1 + IL-2Rβ), pSTAT5 titration?
The Fold change from rhIL-2 (TF1 + IL-2Rβ), pSTAT5 titration was 155 fold and 185 fold.

For B4, which Agonistic Activity (TF1 + IL-2Rβ), pSTAT5 titration is on record?
The Agonistic Activity (TF1 + IL-2Rβ), pSTAT5 titration was 40 to 50%.

The binders below were run against intermediate affinity hIL-2 receptor complex (IL-2Rβγ) on TF1+IL-2Rβ cells (human) (UniProt P14784) (assay: cell-based or functional assay).

With B1 as the binder, how does the Fold change from hIL-2 (TF1 + IL-2Rβ) read?
Its Fold change from hIL-2 (TF1 + IL-2Rβ) is 6 fold.

With B2 as the binder, how does the Fold change from hIL-2 (TF1 + IL-2Rβ) read?
Its Fold change from hIL-2 (TF1 + IL-2Rβ) is 6 fold.

For B3, which Fold change from hIL-2 (TF1 + IL-2Rβ) is on record?
The Fold change from hIL-2 (TF1 + IL-2Rβ) was 5 fold.

Which Fold change from hIL-2 (TF1 + IL-2Rβ) does the source give for B4 here?
Its Fold change from hIL-2 (TF1 + IL-2Rβ) is 4 fold.

These binders were tested against high-affinity hIL-2 receptor (IL-2Rαβγ) (human) (UniProt P01589) (assay: cell-based or functional assay).

How did the Agonistic Activity (NK-92), pSTAT5 titration turn out when B1 was run?
Its Agonistic Activity (NK-92), pSTAT5 titration is 70%.

What about the Fold change from rhIL-2 (NK-92), pSTAT5 titration of the same binder?
Its Fold change from rhIL-2 (NK-92), pSTAT5 titration is greater than 10000 fold.

B2 was tested. Which Agonistic Activity (NK-92), pSTAT5 titration did it give?
The Agonistic Activity (NK-92), pSTAT5 titration was 70%.

What about the Fold change from rhIL-2 (NK-92), pSTAT5 titration of the same binder?
Its Fold change from rhIL-2 (NK-92), pSTAT5 titration is 798 fold.

What does the source list for B3?
Agonistic Activity (NK-92), pSTAT5 titration: 60 to 70%; Fold change from rhIL-2 (NK-92), pSTAT5 titration: > 10000 fold

B4 was tested. Which Agonistic Activity (NK-92), pSTAT5 titration did it give?
Its Agonistic Activity (NK-92), pSTAT5 titration is 30 to 70%.
